The other results are listed elsewhere or left out. Sequences were assembled here from the parent chain. Inactive controls read about 0.05.
B1: TEV protease; numbered along this chain (parent)
chain: MGESLFKGPRDYNPISSSICHLTNESDGHTTSLYGIGFGPFIITNKHLFRRNNGTLVVQSLHGVFKVKDTTTLQQHLVDGRDMIIIRMPKDFPPFPQKLKFREPQREERICLVTTNFQTKSMSSMVSDTSCTFPSGDGIFWKHWIQTKDGQCGSPLVSTRDGFIVGIHSASNFTNTNNYFTSVPKNFMELLTNQEAQQWVSGWRLNADSVLWGGHKVFMVKPEEPFQPVKEATQL

Variants of: B1
Assay: raw area under fraction-flipped curve 0-4 h after induction (AUC4h, not background-subtracted), DNA-recorder readout of cleavage of the substrate (dimensionless); higher = more cleavage of the substrate by the protease variant
Conditions: temperature: 34 °C; time window: 0-4 h after rhamnose induction
Method: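 In vivo DNA recorder in E. coli TOP10(DE3) ΔrhaA at 34 °C. Each TEVp single-site mutant (parent TEVp 0) is paired with a single-site variant of the 7-mer TEVs (canonical ENLYFQ|S). The substrate sits between flexible linkers in a Bxb1-sfGFP-TEVs-SsrA fusion, so cleavage stabilises Bxb1 and speeds flipping of a recombination array, read by NGS. The value is the raw area under the fraction-flipped curve over 0-4 h after rhamnose induction (AUC4h), with ≥20 reads per time point. It is not background-subtracted; inactive controls average about 0.047.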
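Also: Bxb1 expression induced with 0.2% (w/v) L-rhamnose at OD600 near 0.5, cultures sampled hourly, flipped fraction per protease–substrate barcode pair counted by paired-end Illumina sequencing.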

Variant	area with substrate ENLAFQS	area with substrate ENLCFQS	area with substrate ENLDFQS	area with substrate ENLEFQS	area with substrate ENLFFQS	area with substrate ENLIFQS	area with substrate ENLLFQS	area with substrate ENLNFQS	area with substrate ENLPFQS	area with substrate ENLQFQS	area with substrate ENLRFQS	area with substrate ENLWFQS	area with substrate ENLHFQS	area with substrate ENLKFQS	area with substrate ENLSFQS	area with substrate ENLMFQS	area with substrate ENLVFQS	area with substrate ENLGFQS
D69C	0.0594	0.0434	0.0703	0.0655	0.0795	0.0778	0.0661	0.0579	0.0729	0.0593	0.0597	0.0569	–	–	–	–	–	–
D69I	0.0617	–	–	–	0.0682	0.0617	–	0.0664	0.0627	0.0331	–	0.0717	0.0587	0.0634	0.0699	–	–	–
T70A	0.0624	–	0.0818	0.0534	0.0586	0.0727	–	–	0.0374	–	–	–	–	0.0674	0.0541	–	–	–
T70W	0.0621	0.0677	0.0626	0.0603	0.0756	0.0729	0.0565	0.0668	0.0625	0.0678	0.0627	–	0.0624	0.0699	0.0637	0.0679	0.0595	–
Q74E	0.0696	0.0593	0.0492	–	0.0636	–	–	0.0607	0.0702	0.0703	0.0651	–	0.0818	0.0834	0.0568	0.102	–	0.0869
Q74F	0.0639	0.0744	0.0662	–	0.0758	0.079	0.0658	0.0649	–	–	0.0606	0.0634	0.074	0.0638	–	–	0.0561	0.0848
Q74W	0.0655	0.0653	0.0743	–	0.0713	0.128	–	–	0.0771	–	0.0674	0.0424	0.0683	0.0614	0.0699	0.0753	–	0.0722
H76A	0.0203	–	0.0715	–	0.0801	0.0619	0.0662	0.0705	–	0.0797	0.0778	–	–	0.078	0.071	0.0734	0.079	0.089
H76I	0.0651	–	0.0687	–	0.0716	–	–	0.069	–	0.069	–	–	–	0.0682	0.0557	0.0642	–	0.0594
L77V	0.0727	0.0557	0.0613	0.0716	0.0575	0.0672	0.0737	0.0612	0.0439	0.0663	0.0614	0.0609	0.0697	0.0616	0.065	0.0665	0.0801	–
G80R	0.0598	–	0.0715	–	0.0581	0.0729	0.065	0.0766	0.0553	–	–	–	0.0579	0.0752	–	0.0644	–	–
R81D	0.0501	0.0651	0.0646	–	0.0676	0.0557	–	0.0508	0.0734	0.0527	0.0672	0.0433	–	0.0616	–	0.054	–	0.0675
D82F	0.0365	0.0565	0.0584	0.0506	0.0535	0.0542	–	–	0.0747	–	0.066	–	0.0622	0.0652	–	0.0659	–	–
D82W	0.0429	0.0649	0.0635	–	0.0666	–	–	0.0462	0.053	–	–	0.0553	0.0548	–	0.0569	–	0.0735	0.0473
I85D	0.023	–	–	0.0437	0.047	–	0.0348	–	0.041	–	–	0.057	0.0269	0.0543	–	–	–	–

— the supplement of paper PMC12217912
